Hit rate of the full screen: of about 310,000 compounds, about 14,000 (4.5%) showed an effect of 50% or more. The effect is printed as a negative number. The list shows a part of the results.
target: human ether-à-go-go-related gene (hERG) potassium channel (human, UniProt Q12809); test: primary screen, population patch clamp on CHO cells stably expressing hERG
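Further: peak tail current of the secondary pulse compared with the same well before compound.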

Chain of human ether-à-go-go-related gene (hERG) potassium channel (Q12809 whole entry, looked up): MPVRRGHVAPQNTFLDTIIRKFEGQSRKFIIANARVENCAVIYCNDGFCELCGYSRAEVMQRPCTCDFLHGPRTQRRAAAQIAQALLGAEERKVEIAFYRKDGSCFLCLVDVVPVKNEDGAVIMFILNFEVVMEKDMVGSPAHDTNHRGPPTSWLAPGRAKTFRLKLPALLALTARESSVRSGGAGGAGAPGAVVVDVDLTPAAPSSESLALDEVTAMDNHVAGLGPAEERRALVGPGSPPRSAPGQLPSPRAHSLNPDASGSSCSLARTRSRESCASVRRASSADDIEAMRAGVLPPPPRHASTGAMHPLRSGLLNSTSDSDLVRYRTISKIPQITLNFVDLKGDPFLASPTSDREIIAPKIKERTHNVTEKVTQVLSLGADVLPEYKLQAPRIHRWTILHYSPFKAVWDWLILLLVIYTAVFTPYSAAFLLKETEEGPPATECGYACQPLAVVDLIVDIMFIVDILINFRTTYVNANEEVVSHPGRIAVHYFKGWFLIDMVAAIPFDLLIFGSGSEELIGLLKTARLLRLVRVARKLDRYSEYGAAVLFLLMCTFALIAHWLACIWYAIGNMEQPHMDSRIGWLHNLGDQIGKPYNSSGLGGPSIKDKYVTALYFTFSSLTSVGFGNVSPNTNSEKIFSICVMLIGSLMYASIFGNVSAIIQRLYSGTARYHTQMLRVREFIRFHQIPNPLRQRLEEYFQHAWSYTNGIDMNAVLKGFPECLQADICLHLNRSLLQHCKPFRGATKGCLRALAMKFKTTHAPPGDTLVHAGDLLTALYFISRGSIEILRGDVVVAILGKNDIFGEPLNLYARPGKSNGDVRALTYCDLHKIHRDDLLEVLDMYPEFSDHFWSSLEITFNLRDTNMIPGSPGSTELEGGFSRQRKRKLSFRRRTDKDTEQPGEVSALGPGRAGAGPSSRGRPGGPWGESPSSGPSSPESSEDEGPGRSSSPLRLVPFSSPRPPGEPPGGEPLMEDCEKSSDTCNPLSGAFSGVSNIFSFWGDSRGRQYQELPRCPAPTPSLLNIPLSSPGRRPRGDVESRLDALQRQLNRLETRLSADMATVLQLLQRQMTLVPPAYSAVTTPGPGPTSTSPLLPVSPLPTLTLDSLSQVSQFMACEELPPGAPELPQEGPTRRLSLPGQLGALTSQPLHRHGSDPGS

Compound | hERG current change (%, negative = inhibition) at 10uM [%]
O=C(c1ccc(COc2c(F)c(F)cc(F)c2F)o1)N1CCN(c2ccccc2)CC1 | 2.5
Cc1ccc(Nc2nc(N)c([N+](=O)[O-])c(NCCO)n2)cc1 | -24.7
N[C@@H](Cc1ccccc1)C(=O)N1CCC(C(=O)N[C@@H](Cc2c[nH]c3ccccc23)C(=O)O)CC1 | 21.2
COc1cc(NS(=O)(=O)c2ccc(NC(=O)/C(=C\c3ccccc3OC)NC(=O)c3ccccc3)cc2)nc(OC)n1 | 26.5
CCOc1ccc2ccccc2c1/C=N\NC(=O)OC | 12.7
COc1cc(-c2nc3ccccn3c2/N=C/c2ccccc2)ccc1O | -11.6
CCN(CC)CCCn1c2c(c(SCC(=O)Nc3ccc4c(c3)OCO4)nc1=O)CCC2 | -44.6
Cc1nn(-c2ncc(C(F)(F)F)cc2Cl)c(=O)n1-c1cccc(Cl)c1 | 12.3
COc1nc(Oc2ccc(C(=O)O)cc2)nc(Oc2ccc(C(=O)O)cc2)n1 | 5.5
COc1ccc(C2=Nc3ccccc3OC2)cc1 | -2.07
Cc1ccc(S(=O)(=O)NCCC(=O)NCCCSc2ccccc2)cc1 | -31.6
COc1ccc(-c2cnc(SCC(=O)Nc3nc(C(C)(C)C)cs3)n2Cc2ccco2)cc1 | -4.33
O=C(NCc1ccccc1)c1ccc(NC(=O)c2ccco2)cc1 | 5.81
CCN(Cc1ccccc1)c1ccc(/C=N/NC(=S)NC(C)C)cc1 | 2.08
CCN1CCN(C(=O)c2ccc3c(c2)c(C)c(C)n3Cc2ccccc2)CC1 | -25.8
Cc1ccc(C(=O)NCCNC(=O)c2ccccc2)cc1 | 8.24
O=C(N/N=C/c1cccn1-c1ccc(O)cc1)c1cccc2ccccc12 | 1.35
CC1Cn2c(nnc2-c2ccccc2O)S1 (stereo not drawn) | -0.158
c1ccc(-n2c(Cc3cccnc3)nc3cnccc32)cc1 | -50.5
NS(=O)(=O)c1cccc(NC(=O)COC(=O)Cc2n[nH]c(=O)c3ccccc23)c1 | 3.87
CCOC(=O)C1CCCN(C(=S)Nc2ccc(OC)cc2)C1 (stereo not drawn) | 5.25
Cn1c(=O)n(Cc2ccc(F)cc2)c(=O)c2c1nc1n2CCN1Cc1ccco1 | -55.4

Compound | hERG current change (%, negative = inhibition) at 10uM [%]
Cc1cnc(Sc2ncccc2[N+](=O)[O-])nc1 | -2.92
CC(C)(C)OC(=O)[C@H](Cc1ccccc1)NC(=O)c1nc[nH]c1C(=O)N[C@@H](Cc1ccccc1)C(=O)OC(C)(C)C | 9.91
CCc1ccccc1N1C(=O)NC(=O)/C(=C\c2cc(C)n(C)c2C)C1=O | 1.5
CCOC(=O)c1cc(NC(=O)c2ccc(Cl)cc2)c(=O)n2c1oc1ccc(Cl)cc12 | 14
CC1(c2nnc(-c3ccccc3)o2)CC(c2cccc(Cl)c2)=NO1 (stereo not drawn) | 12.5
Cc1cccc(NC(=O)CSc2nnc(-c3ccco3)c(-c3ccco3)n2)c1C | -66.4
Cn1c(SCC(=O)NCC2CCCO2)nc2c(c1=O)SCC2 (stereo not drawn) | 22.2
C[C@H](NC(=O)[C@@H]1CSC2c3ccccc3C(=O)N21)C(=O)NC1CCCCC1 (stereo partly drawn) | 5.72
COc1cc(CN2CCN(C3CCC3)CC2CCO)cc(OC)c1 (stereo not drawn) | 8.54
O=C(CCNC(=O)Cn1ccc2ccccc2c1=O)NCCc1ccccc1Cl | -2.48
COC(=O)c1cccc(NC(=S)N2CCOCC2)c1 | 33.2
O=C(O)C(c1ccccc1)N1C(=O)/C(=C\c2ccc(-c3cccc(Cl)c3)o2)SC1=S (stereo not drawn) | -7.12
O=C(CCC(=O)OCCCC(F)(F)C(F)(F)F)NC1CCCCC1 | 5.76
C=CCC1(/C=N/O)CCOC(C)(C)C1 (stereo not drawn) | 16.7
Cc1ccccc1NC1C=CS(=O)(=O)C1 (stereo not drawn) | 12.6
CCCN(CCC)c1ccc(/C=N/NC(=O)CN2CCOCC2)cc1 | -38.2
CCCC(c1nnnn1C(C)(C)C)N1CCN(Cc2ccccc2)CC1.Cl (stereo not drawn) | -18.5
CCOC(=O)C1CCCN(CCC(=O)Nc2cccc(Cl)c2C)C1.Cl (stereo not drawn) | -12.8
O=S1(=O)N=C(N(Cc2cccs2)c2ccc(O)cc2)c2ccccc21 | -39.1
CC(C)(C)CC(C)(C)NCC(O)COCCOc1ccc(Br)cc1.Cl (stereo not drawn) | -32.8
COc1ccc(/C=C/C(=O)OCC(=O)c2ccc3c(c2)NC(=O)CO3)cc1 | 24.7
O=C(CSCCc1ccccn1)Nc1ccc(Br)cn1 | -4.13

Compound | hERG current change (%, negative = inhibition) at 10uM [%]
O=C(C1CCCN(S(=O)(=O)c2cnc[nH]2)C1)N(CCc1ccccc1)Cc1ccccc1 (stereo not drawn) | -17.3
CC1CCCN(C(=O)Cn2nnc(-c3ccc(N(C)C)cc3)n2)C1 (stereo not drawn) | 12.1
COc1ccccc1Nc1nc(N)nc(CSc2nccc(C)n2)n1 | -0.726
C(#Cc1ccccc1)CN1CCOCC1.Cl | 22.9
CCOC(=O)CC(NC(=O)Cn1nnc(-c2ccccc2Cl)n1)c1ccc(OC)cc1 (stereo not drawn) | -0.135
CO.COC(=O)/C=C/c1c(C)[nH]c(=O)[nH]c1=O | 7.87
O=C(CN1C(=O)NC2(CCCC2)C1=O)OCCOc1ccccc1 | 5.02
CC1CN(S(=O)(=O)c2ccccc2)CN1C(=O)N1CCOCC1 (stereo not drawn) | 14.3
COC(=O)c1ccc(-c2nn(C)c(=O)c3ccccc23)cc1 | -11.3
COc1cccc(CNC(=O)C2CCCN(c3ncnc4c3nc3n4CCCCC3)C2)c1 (stereo not drawn) | -55.6
CCCNC(=O)NC(=O)COc1ccc(-c2ccc(C#N)cc2)cc1 | 7.8
CC1(C)CC(=O)c2cc(OCC(=O)NCc3cccnc3)ccc2O1 | -12.9
Cc1cc(C)cc(Oc2ccccc2/C=C\C(=O)O)c1 | 5.61
O=C1C(=O)N(CCN2CCOCC2)C(c2cccc(Cl)c2)/C1=C(/O)c1ccc2c(c1)OCO2 (stereo not drawn) | 17.9
CCOc1cc(CNCCc2c[nH]c3ccccc23)cc(Cl)c1OCC(N)=O.Cl | -46.4
O=C(c1cccc(Br)c1)N1CCCc2ccccc21 | -0.718
O=C(NCc1ccccc1)C1(C(F)(F)F)C/C(=C\CCO)CCCO1 (stereo not drawn) | 11.9
O=C(Nc1nc(-c2ccccc2)cs1)C1CCCN(S(=O)(=O)c2cccc([N+](=O)[O-])c2)C1 (stereo not drawn) | 12.6
CC(C(=O)Nc1cccnc1)N1C(=O)C2C3C=CC(C3)C2C1=O (stereo not drawn) | 2.28
Cc1ccc(-c2nn(-c3ccccc3)cc2NC(=O)CCl)cc1 | -1.64
CCN(C(=O)c1cc2cc(OC)ccc2oc1=O)c1cccc(C)c1 | 6.7
CC1CN(S(=O)(=O)c2ccc(Cl)c(S(=O)(=O)N3CC(C)OC(C)C3)c2)CC(C)O1 (stereo not drawn) | 2.28

Compound | hERG current change (%, negative = inhibition) at 10uM [%]
O=C(O)c1cc(C(F)(F)F)nc2ccccc12 | 3.92
Cc1ccccc1-c1nnn(CC(=O)NCc2ccc3c(c2)OCO3)n1 | 27.7
COc1ccc2cc(Br)ccc2c1CC(=O)NC(C)(C)C | 17.3
CC1(C)CC(=O)C(C(C2=C(O)CC(C)(C)CC2=O)c2cccc(O)c2)C(=O)C1 (stereo not drawn) | -8.94
Cc1ccnc(NC(=O)CCc2c[nH]c3ccccc23)c1 | 0.429
CCN(Cc1ccccc1)C(c1ccc(C)cc1)c1nnnn1C(C)(C)C (stereo not drawn) | 5.54
Cc1oc2ccccc2c1-c1cn2c(n1)SCC2 | 0.711
Cc1ccc(OC(=O)c2ccc3snnc3c2)cc1 | -5.23
CC(=O)Nc1ccc(CNc2ncnc3ccc(-c4c(C)noc4C)cc23)cc1 | -2.55
O=C(O)C1C2CCC(C2)C1C(=O)NCCc1ccc(F)cc1 (stereo not drawn) | 26.2
O=c1c(-c2ccc3c(c2)OCCO3)c(C(F)(F)F)oc2cc(O)cc(O)c12 | -9.07
O=C(CN1C(=O)COc2ccccc21)Nc1ccc2c(c1)OCCO2 | -4.52
Cc1ccc(CNC(=O)C2CCCN(S(=O)(=O)c3c(C)noc3C)C2)cc1 (stereo not drawn) | 0.604
COc1cc(C)cc2oc(=O)c(CC(=O)N3C[C@H]4C[C@@H](C3)c3cccc(=O)n3C4)c(C)c12 | -2.54
O=C(NCCCN1CCCC1=O)C(=O)Nc1cccc(F)c1 | -30.1
CCOC(=O)c1cc(NC(=O)C2C3C=CC(O3)C2C(=O)O)cc(C(=O)OCC)c1 (stereo not drawn) | 2.13
C/C(=N\NC(=O)c1nnn(-c2nonc2N)c1-c1ccc2c(c1)OCO2)c1ccccc1 | 5.41
Cc1ccc(NC(=O)OC(C)CNC(=O)Oc2cccc(C)c2)cc1 (stereo not drawn) | 25.5
O=C(C1CCCN1S(=O)(=O)c1cccc2cccnc12)N1CCc2ccccc21 (stereo not drawn) | -31.7
Cc1cc(C)n(C(C)n2nc(C)cc2C)n1 | 17.9
Cc1ccc(/C=N/NC(=O)C2(C)CC2(Br)Br)cc1 (stereo not drawn) | 11.7

From article PMC4336329 (PLoS ONE, 2015)
